According to article PMC6212790:
The list shows a part of the results. At the low end of the ranking the order means little.

Target: T1, GST-Rok (full length) (UniProt O34857)
T1 sequence: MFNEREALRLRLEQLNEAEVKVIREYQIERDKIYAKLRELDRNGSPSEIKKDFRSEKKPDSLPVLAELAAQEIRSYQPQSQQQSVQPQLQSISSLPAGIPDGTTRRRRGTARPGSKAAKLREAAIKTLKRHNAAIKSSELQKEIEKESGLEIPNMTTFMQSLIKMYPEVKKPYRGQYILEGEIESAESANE
Assay: protein binding microarray;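 further: rank score from −0.5 (least bound) to 0.5 (best bound)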
Conditions: Rok is a gene silencer of Bacillus subtilis; high values mean tight binding; most listed sequences are background and not binding sites; double strand, one strand shown

| Sequence | binding signal |
| --- | --- |
| GAATTGAC | 0.0331 E-score |
| AGAAAGCA | -0.038 E-score |
| CCGTTGCC | -0.292 E-score |
| ACCGTGCA | 0.204 E-score |
| CTAGGTTC | 0.115 E-score |
| GAAGGCAA | -0.277 E-score |
| CCGGACAC | 5.9e-05 E-score |
| GTCTAGTA | 0.174 E-score |
| CCTCATAA | -0.103 E-score |
| GACAGAAC | -0.0014 E-score |
| AGTTATTG | 0.285 E-score |
| CTACGAAA | 0.142 E-score |
| GTAATAGA | 0.257 E-score |
| GGTACAAC | -0.0759 E-score |
| AAAGCTCC | -0.0639 E-score |
| CGACCAAC | -0.166 E-score |
| AGCGTGCG | -0.149 E-score |
| ACTTTACT | 0.179 E-score |
| CTGCGAAA | -0.125 E-score |
| CTAGCGCC | -0.19 E-score |
| CGGTCTAA | -0.00451 E-score |
| CCCTATGA | -0.11 E-score |
| CCGAGTGA | -0.183 E-score |
| CCCTAGAA | -0.0316 E-score |
| ACACGCGT | 0.153 E-score |

| Sequence | binding signal |
| --- | --- |
| ATCTCACG | -0.0282 E-score |
| AATCATGC | 0.00628 E-score |
| AGTTTAAA | 0.16 E-score |
| AGACAAAG | -0.0603 E-score |
| CGGTAACC | -0.0601 E-score |
| ATCGATCG | 0.0887 E-score |
| CCTTACCC | -0.241 E-score |
| GAGCTCGA | 0.0487 E-score |
| GGTGTTCA | -0.0432 E-score |
| GCCGCCTA | -0.131 E-score |
| ACCGCCCG | -0.224 E-score |
| ATAGACAC | 0.111 E-score |
| CGAGGAAC | -0.158 E-score |
| ATCGTTAA | 0.103 E-score |
| ACCTTTAA | 0.053 E-score |
| AGCACACT | -0.0547 E-score |
| ATGTACGC | 0.143 E-score |
| GCTCAACA | -0.187 E-score |
| CGCCAGAG | -0.265 E-score |
| AAAGAGTG | -0.0742 E-score |
| GATGATCC | -0.0833 E-score |
| ACACGAAC | 0.162 E-score |
| CCCTACTA | -0.0153 E-score |
| TTGATCAA | 0.164 E-score |
| AAAAGTAC | 0.239 E-score |

| Sequence | binding signal |
| --- | --- |
| GTCACTCA | 0.0147 E-score |
| CTCACAAG | -0.0773 E-score |
| CTTGTTTA | 0.0282 E-score |
| TTAGCCAA | 0.0979 E-score |
| TCCTGTCA | -0.127 E-score |
| ACCGTCCT | -0.0322 E-score |
| AATACGCG | 0.216 E-score |
| AGTATTAT | 0.358 E-score |
| CTCGAAAG | -0.0828 E-score |
| ATAACCCA | 0.0794 E-score |
| ACATTCCG | 0.267 E-score |
| ATGTAGGC | -0.0373 E-score |
| GTGAGGTA | 0.255 E-score |
| CCATACAA | 0.172 E-score |
| CCTCGACA | -0.211 E-score |
| CACAACTC | 0.0125 E-score |
| CTTCCGAC | -0.223 E-score |
| ATAACAGC | 0.134 E-score |
| AACCCTGA | -0.274 E-score |
| GAGAAGGC | -0.293 E-score |
| ATCGGCCC | -0.172 E-score |
| GACCTACA | -0.0845 E-score |
| AGACTGAG | -0.0917 E-score |
| CCCCTATC | -0.328 E-score |
| CTATGGAA | 0.146 E-score |

| Sequence | binding signal |
| --- | --- |
| GCATCCAC | -0.0472 E-score |
| AATCGTAC | 0.137 E-score |
| CGCTTCTA | 0.0526 E-score |
| AACTATTG | 0.378 E-score |
| ACCGCAGG | -0.0907 E-score |
| CAAATGCC | -0.104 E-score |
| TGGTATAA | 0.349 E-score |
| CCCGGAAA | -0.265 E-score |
| GAACGGCC | -0.285 E-score |
| ATGACCCC | -0.171 E-score |
| TGCACTAA | 0.0805 E-score |
| CATGAGTC | -0.193 E-score |
| ACAGAGTA | 0.18 E-score |
| CAACTGAA | -0.0305 E-score |
| CCGTAAGC | -0.0766 E-score |
| TGGTACCA | 0.193 E-score |
| GGCTTAAA | -0.231 E-score |
| GCAATCAA | 0.134 E-score |
| ACTCCGCT | -0.165 E-score |
| AGGTTTCC | -0.176 E-score |
| CAAGGTTA | -0.0876 E-score |
| CCGAGTAA | -0.0984 E-score |
| GTACGGAC | -0.173 E-score |
| AGCCCAGC | -0.348 E-score |
| GAAGACAA | -0.0645 E-score |

| Sequence | binding signal |
| --- | --- |
| ATCCACCG | -0.155 E-score |
| CGTGATAC | 0.162 E-score |
| ATCTCTCC | -0.305 E-score |
| ACGGGGAT | -0.0788 E-score |
| AGCCGGTG | -0.286 E-score |
| GGCTGTGA | 0.0813 E-score |
| GAAGAGTC | -0.192 E-score |
| CCACTCAA | -0.0115 E-score |
| GCAGGTGA | -0.153 E-score |
| ACACCGAC | -0.161 E-score |
| CGCGGATA | 0.00827 E-score |
| ATTACTCA | 0.146 E-score |
| TGAAGGAA | -0.208 E-score |
| AGAAACTA | 0.412 E-score |
| GACCTGCC | -0.309 E-score |
| CTTGATCA | -0.0908 E-score |
| TCCCAAAA | -0.171 E-score |
| GAGGCGGA | -0.273 E-score |
| ATCCAGAC | 0.0452 E-score |
| GACAGATC | 0.00698 E-score |
| CTTATCTC | 0.119 E-score |
| AATTGCTC | 0.0773 E-score |
| GTAAATTA | 0.383 E-score |
| GGGGAAGA | -0.302 E-score |
| CGTCTGGC | -0.12 E-score |

| Sequence | binding signal |
| --- | --- |
| ACACTAGC | 0.0206 E-score |
| GTACAAGA | 0.152 E-score |
| ATATGATA | 0.179 E-score |
| ACAGATCA | -0.0542 E-score |
| ACCCGTCG | -0.107 E-score |
| ACGACATC | 0.0179 E-score |
| TGGGGGAA | -0.34 E-score |
| TCAAAGGA | -0.135 E-score |
| CCGCAGTA | -0.0372 E-score |
| AGGGTTAA | 0.0656 E-score |
| AGCGCTCC | -0.178 E-score |
| ATATGAAA | 0.222 E-score |
| AGCAAGAA | 0.052 E-score |
| CTCGCCTC | -0.304 E-score |
| GTAGGCGA | -0.178 E-score |
| CCGAATGA | 0.0453 E-score |
| CCACTGCC | -0.199 E-score |
| TAGCTTGA | 0.12 E-score |
| GGGGCGTA | -0.321 E-score |
| GGCGGATA | -0.136 E-score |
| CAGGGCTC | -0.282 E-score |
| ACATCGGT | -0.0358 E-score |
| AGTCTTTC | -0.0288 E-score |
| CGCTGGAG | -0.0681 E-score |
| CCGTTTAG | -0.143 E-score |

| Sequence | binding signal |
| --- | --- |
| GACAGTCA | -0.00771 E-score |
| ATGGTGTA | 0.264 E-score |
| AAAAACTC | 0.0197 E-score |
| GATTTCAC | -0.148 E-score |
| AACAACGC | 0.243 E-score |
| GCTCATGA | -0.144 E-score |
| GGTGAGTA | 0.13 E-score |
| CGGGTGTA | -0.149 E-score |
| ACTCATTG | 0.241 E-score |
| CGGAACAC | -0.154 E-score |
| AACCGACT | -0.0188 E-score |
| AACTCAGA | 0.108 E-score |
| GCGGTTGA | -0.212 E-score |
| ATGACACA | 0.106 E-score |
| GCTGCCCC | -0.344 E-score |
| ATTATGCC | 0.099 E-score |
| ACAGATAC | 0.221 E-score |
| GAAGCGCA | -0.153 E-score |
| CCCCGAAA | -0.2 E-score |
| CACGCTAC | 0.118 E-score |
| AGCGAAGA | -0.0213 E-score |
| CTAAGGCA | 0.0902 E-score |
